Drawing on PMC9911399, “Two distinct binding modes provide the RNA-binding protein RbFox with extraordinary sequence specificity”, this text covers binding signal for 31 molecules.

Positions count from the first letter of the chain named. The list shows a part of the results.

T1: RBFOX1 RRM RbFoxmut (Fox-RRM*) (Homo sapiens, UniProt Q9NWB1 109-208, R118D;E147R;N151S;E152T)
T1 sequence: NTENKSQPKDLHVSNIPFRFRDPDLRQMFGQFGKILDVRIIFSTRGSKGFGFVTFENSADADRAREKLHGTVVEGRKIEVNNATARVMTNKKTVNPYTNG

B1: AAACCAG (DNA:RNA)
RNA: GGGAGACCGGAAUUCAGAUUGUCCAAACCAGUUAAAUCCCGUCGUAGCCACCA
DNA 1: CAATCTGAATTCCGGTCTCCC
DNA 2: TGGTGGCTACGACGGGATT
B2: AGAUUAG (DNA:RNA)
RNA: B1 RNA with A26G, C28U, C29U
DNA 1: CAATCTGAATTCCGGTCTCCC
DNA 2: TGGTGGCTACGACGGGATT
B3: UCAGCCC (DNA:RNA)
RNA: B1 RNA with A25U, A26C, C28G, A30C, G31C
DNA 1: CAATCTGAATTCCGGTCTCCC
DNA 2: TGGTGGCTACGACGGGATT
B4: GGGUAUA (DNA:RNA)
RNA: GGGAGACCGGAAUUCAGAUUGUCCGGGUAUAUUAAAUCCCGUCGUAGCCACCA
DNA 1: CAATCTGAATTCCGGTCTCCC
DNA 2: TGGTGGCTACGACGGGATT
B5: CGGGUGC (DNA:RNA)
RNA: B4 RNA with G25C, U28G, A29U, U30G, A31C
DNA 1: CAATCTGAATTCCGGTCTCCC
DNA 2: TGGTGGCTACGACGGGATT
B6: UCGGGGC (DNA:RNA)
RNA: B4 RNA with G25U, G26C, U28G, A29G, U30G, A31C
DNA 1: CAATCTGAATTCCGGTCTCCC
DNA 2: TGGTGGCTACGACGGGATT
B7: UACGAGC (DNA:RNA)
RNA: B1 RNA with A25U, A27C, C28G, C29A, A30G, G31C
DNA 1: CAATCTGAATTCCGGTCTCCC
DNA 2: TGGTGGCTACGACGGGATT
B8: AGGCGAG (DNA:RNA)
RNA: B1 RNA with A26G, A27G, C29G
DNA 1: CAATCTGAATTCCGGTCTCCC
DNA 2: TGGTGGCTACGACGGGATT
B9: GCCUCCA (DNA:RNA)
RNA: B4 RNA with G26C, G27C, A29C, U30C
DNA 1: CAATCTGAATTCCGGTCTCCC
DNA 2: TGGTGGCTACGACGGGATT
B10: UGUCGAG (DNA:RNA)
RNA: B1 RNA with A25U, A26G, A27U, C29G
DNA 1: CAATCTGAATTCCGGTCTCCC
DNA 2: TGGTGGCTACGACGGGATT
B11: ACCACUG (DNA:RNA)
RNA: B1 RNA with A26C, A27C, C28A, A30U
DNA 1: CAATCTGAATTCCGGTCTCCC
DNA 2: TGGTGGCTACGACGGGATT
B12: ACGUCGU (DNA:RNA)
RNA: B1 RNA with A26C, A27G, C28U, A30G, G31U
DNA 1: CAATCTGAATTCCGGTCTCCC
DNA 2: TGGTGGCTACGACGGGATT
B13: ACGUCAG (DNA:RNA)
RNA: B1 RNA with A26C, A27G, C28U
DNA 1: CAATCTGAATTCCGGTCTCCC
DNA 2: TGGTGGCTACGACGGGATT
B14: AGGUGUC (DNA:RNA)
RNA: B4 RNA with G25A, A29G, A31C
DNA 1: CAATCTGAATTCCGGTCTCCC
DNA 2: TGGTGGCTACGACGGGATT
B15: UUUGUCG (DNA:RNA)
RNA: B1 RNA with A25U, A26U, A27U, C28G, C29U, A30C
DNA 1: CAATCTGAATTCCGGTCTCCC
DNA 2: TGGTGGCTACGACGGGATT
B16: AAAGCUG (DNA:RNA)
RNA: B1 RNA with C28G, A30U
DNA 1: CAATCTGAATTCCGGTCTCCC
DNA 2: TGGTGGCTACGACGGGATT
B17: CCUUCAA (DNA:RNA)
RNA: B1 RNA with A25C, A26C, A27U, C28U, G31A
DNA 1: CAATCTGAATTCCGGTCTCCC
DNA 2: TGGTGGCTACGACGGGATT
B18: AUGCAGA (DNA:RNA)
RNA: B4 RNA with G25A, G26U, U28C, U30G
DNA 1: CAATCTGAATTCCGGTCTCCC
DNA 2: TGGTGGCTACGACGGGATT
B19: CUAACUU (DNA:RNA)
RNA: B1 RNA with A25C, A26U, C28A, A30U, G31U
DNA 1: CAATCTGAATTCCGGTCTCCC
DNA 2: TGGTGGCTACGACGGGATT
B20: CGCGAAG (DNA:RNA)
RNA: B1 RNA with A25C, A26G, A27C, C28G, C29A
DNA 1: CAATCTGAATTCCGGTCTCCC
DNA 2: TGGTGGCTACGACGGGATT
B21: UAUCCCA (DNA:RNA)
RNA: B1 RNA with A25U, A27U, A30C, G31A
DNA 1: CAATCTGAATTCCGGTCTCCC
DNA 2: TGGTGGCTACGACGGGATT
B22: GUAGACG (DNA:RNA)
RNA: B1 RNA with A25G, A26U, C28G, C29A, A30C
DNA 1: CAATCTGAATTCCGGTCTCCC
DNA 2: TGGTGGCTACGACGGGATT
B23: UUGUUCA (DNA:RNA)
RNA: B4 RNA with G25U, G26U, A29U, U30C
DNA 1: CAATCTGAATTCCGGTCTCCC
DNA 2: TGGTGGCTACGACGGGATT
B24: CCCGUCC (DNA:RNA)
RNA: GGGAGACCGGAAUUCAGAUUGUCCCCCGUCCUUAAAUCCCGUCGUAGCCACCA
DNA 1: CAATCTGAATTCCGGTCTCCC
DNA 2: TGGTGGCTACGACGGGATT
B25: AUCUCUG (DNA:RNA)
RNA: B1 RNA with A26U, A27C, C28U, A30U
DNA 1: CAATCTGAATTCCGGTCTCCC
DNA 2: TGGTGGCTACGACGGGATT
B26: GAAAUUG (DNA:RNA)
RNA: B1 RNA with A25G, C28A, C29U, A30U
DNA 1: CAATCTGAATTCCGGTCTCCC
DNA 2: TGGTGGCTACGACGGGATT
B27: AGUUGUU (DNA:RNA)
RNA: B4 RNA with G25A, G27U, A29G, A31U
DNA 1: CAATCTGAATTCCGGTCTCCC
DNA 2: TGGTGGCTACGACGGGATT
B28: GAAAUAC (DNA:RNA)
RNA: B1 RNA with A25G, C28A, C29U, G31C
DNA 1: CAATCTGAATTCCGGTCTCCC
DNA 2: TGGTGGCTACGACGGGATT
B29: CUGCAUC (DNA:RNA)
RNA: B4 RNA with G25C, G26U, U28C, A31C
DNA 1: CAATCTGAATTCCGGTCTCCC
DNA 2: TGGTGGCTACGACGGGATT
B30: CAGAGCU (DNA:RNA)
RNA: B24 RNA with C26A, C27G, G28A, U29G, C31U
DNA 1: CAATCTGAATTCCGGTCTCCC
DNA 2: TGGTGGCTACGACGGGATT
B31: CAGUCCA (DNA:RNA)
RNA: B4 RNA with G25C, G26A, A29C, U30C
DNA 1: CAATCTGAATTCCGGTCTCCC
DNA 2: TGGTGGCTACGACGGGATT

The test deals with T1, RBFOX1 RRM RbFoxmut (Fox-RRM*). In words: EMSA; HiTS-Eq, 1 nM pool, 10 min; buffer printed only for the single-RNA assays: 10 mM Tris pH 7.5, 150 mM NaCl, 3.4 mM EDTA, 0.001% NP-40, 30 C. Particulars: tags: His6 N-terminal (pET28a); label: 5' 32P. A digest of the protocol: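 Purified RbFox RRM (wild type or mutant) was equilibrated for 10 min in 50 µL with 1 nM of a 5′-radiolabelled pool of RNA with 7 randomized nucleotides, its flanks annealed to DNA oligonucleotides, across increasing protein concentrations. Free RNA was separated by 8% native PAGE, excised, reverse-transcribed, PCR-barcoded and sequenced on an Illumina HiSeq 2500. Relative association constants came from read-count changes of each variant against the control reaction, normalised to the cognate motif.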
For orientation: Mobility shift assays separate free from complexed probe on a gel.
As for B1, the binding signal is 0.109 KA relative to UGCAUGU.

Turning to B2, the binding signal was 0.138 KA relative to UGCAUGU. Regarding B3, the binding signal was 0.0707 KA relative to UGCAUGU.

On to B4, for which the binding signal was 0.139 KA relative to UGCAUGU. Take B5: the binding signal was 0.142 KA relative to UGCAUGU. Then B6, with 0.0875 KA relative to UGCAUGU. The figure for B7 is 0.0835 KA relative to UGCAUGU; for B8 it is 0.11 KA relative to UGCAUGU. For B9, the binding signal is 0.0729 KA relative to UGCAUGU. In the case of B10, the binding signal is 0.116 KA relative to UGCAUGU. For the molecule B11, the binding signal was 0.082 KA relative to UGCAUGU. Then B12, with 0.121 KA relative to UGCAUGU; and B13, with 0.112 KA relative to UGCAUGU. Then B14, with 0.227 KA relative to UGCAUGU; and B15, with 0.125 KA relative to UGCAUGU; and B16, with 0.0824 KA relative to UGCAUGU. The figure for B17 is 0.0844 KA relative to UGCAUGU; for B18 it is 0.125 KA relative to UGCAUGU. As for B19, the binding signal is 0.0758 KA relative to UGCAUGU. Consider B20, for which the binding signal is 0.108 KA relative to UGCAUGU. For B21, the binding signal is 0.0578 KA relative to UGCAUGU. Then B22, with 0.0848 KA relative to UGCAUGU; and B23, with 0.173 KA relative to UGCAUGU; and B24, with 0.0531 KA relative to UGCAUGU. As to B25, the binding signal is 0.101 KA relative to UGCAUGU. Then B26, with 0.0736 KA relative to UGCAUGU.

As for B27, the binding signal was 0.111 KA relative to UGCAUGU.

In the case of B28, the binding signal was 0.0758 KA relative to UGCAUGU. B29: the binding signal is 0.457 KA relative to UGCAUGU. In the case of B30, the binding signal is 0.101 KA relative to UGCAUGU. The figure for B31 is 0.0967 KA relative to UGCAUGU.
